Assay results as given in PMC4242493.
Some of the results follow. The list includes weakly bound sequences.

Target: MaxL homodimer (UniProt P61244)
Assay: universal protein-binding microarray (PBM)
Conditions: PBS-based mixture, 10 nM His-tagged protein dimer, 2% milk, 200 ng/uL BSA, 50 ng/uL salmon testes DNA, 0.02% TX-100; detection with Alexa 488 anti-His …; high values mean tight binding; most listed sequences are background and not binding sites; double strand, one strand shown

Chain of UniProt P61244 (P61244 whole entry): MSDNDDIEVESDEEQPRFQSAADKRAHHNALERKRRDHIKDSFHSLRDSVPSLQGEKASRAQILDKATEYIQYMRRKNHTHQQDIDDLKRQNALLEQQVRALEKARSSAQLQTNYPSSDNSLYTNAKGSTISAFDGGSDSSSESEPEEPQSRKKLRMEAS

AACCCCTA was tested. Which binding signal (normalized occupancy) did it give?
The binding signal (normalized occupancy) was 0.0777.

With TCCGGAAA as the sequence, how does the binding signal (normalized occupancy) read?
Its binding signal (normalized occupancy) is 0.0699.

CGACAGAA was tested. Which binding signal (normalized occupancy) did it give?
The binding signal (normalized occupancy) was 0.0718.

For ATTTCATG, which binding signal (normalized occupancy) is on record?
Its binding signal (normalized occupancy) is 0.0821.

Which binding signal (normalized occupancy) does the source give for CTTTGGGC here?
Its binding signal (normalized occupancy) is 0.0716.

Which binding signal (normalized occupancy) does the source give for TGAGTAAA here?
The binding signal (normalized occupancy) was 0.0765.

How did the binding signal (normalized occupancy) turn out when CTACAGAC was run?
The binding signal (normalized occupancy) was 0.0772.

Which binding signal (normalized occupancy) does the source give for CTCTTCTC here?
The binding signal (normalized occupancy) was 0.073.

With AAGATGAA as the sequence, how does the binding signal (normalized occupancy) read?
Its binding signal (normalized occupancy) is 0.0768.

With ACAGGGCC as the sequence, how does the binding signal (normalized occupancy) read?
The binding signal (normalized occupancy) was 0.0673.

GCATCGAA was tested. Which binding signal (normalized occupancy) did it give?
Its binding signal (normalized occupancy) is 0.075.

Which binding signal (normalized occupancy) does the source give for GATTACTA here?
Its binding signal (normalized occupancy) is 0.0818.

For CCGTCCAC, which binding signal (normalized occupancy) is on record?
The binding signal (normalized occupancy) was 0.0751.

With AGAGAGAG as the sequence, how does the binding signal (normalized occupancy) read?
The binding signal (normalized occupancy) was 0.075.

How did the binding signal (normalized occupancy) turn out when CGGATCCG was run?
Its binding signal (normalized occupancy) is 0.0639.

With GGATTGCC as the sequence, how does the binding signal (normalized occupancy) read?
Its binding signal (normalized occupancy) is 0.0701.

How did the binding signal (normalized occupancy) turn out when GTACTGTA was run?
Its binding signal (normalized occupancy) is 0.0787.

With AAATCCGC as the sequence, how does the binding signal (normalized occupancy) read?
The binding signal (normalized occupancy) was 0.0712.

CACCTCTC was tested. Which binding signal (normalized occupancy) did it give?
The binding signal (normalized occupancy) was 0.0733.

Which binding signal (normalized occupancy) does the source give for CAAGAACC here?
The binding signal (normalized occupancy) was 0.076.

With ACTGTGTG as the sequence, how does the binding signal (normalized occupancy) read?
The binding signal (normalized occupancy) was 0.0821.

With CCAGAGGA as the sequence, how does the binding signal (normalized occupancy) read?
The binding signal (normalized occupancy) was 0.0737.

Which binding signal (normalized occupancy) does the source give for AGTACCTA here?
Its binding signal (normalized occupancy) is 0.0751.

Which binding signal (normalized occupancy) does the source give for CAAGATGC here?
Its binding signal (normalized occupancy) is 0.0794.

How did the binding signal (normalized occupancy) turn out when ACAAGGTG was run?
Its binding signal (normalized occupancy) is 0.0843.

With AAGACACT as the sequence, how does the binding signal (normalized occupancy) read?
Its binding signal (normalized occupancy) is 0.075.

Which binding signal (normalized occupancy) does the source give for AAGTGTGC here?
Its binding signal (normalized occupancy) is 0.0869.

For GGTGAGCA, which binding signal (normalized occupancy) is on record?
Its binding signal (normalized occupancy) is 0.0759.

With CTCATGGA as the sequence, how does the binding signal (normalized occupancy) read?
The binding signal (normalized occupancy) was 0.0927.

GCCCTGAC was tested. Which binding signal (normalized occupancy) did it give?
The binding signal (normalized occupancy) was 0.0756.

How did the binding signal (normalized occupancy) turn out when GGAGCTTA was run?
The binding signal (normalized occupancy) was 0.0698.

For ATTCCAAT, which binding signal (normalized occupancy) is on record?
The binding signal (normalized occupancy) was 0.0727.

Which binding signal (normalized occupancy) does the source give for ACTGCTGA here?
Its binding signal (normalized occupancy) is 0.0731.

ACGAGGCC was tested. Which binding signal (normalized occupancy) did it give?
The binding signal (normalized occupancy) was 0.075.

For AGTAAAGC, which binding signal (normalized occupancy) is on record?
Its binding signal (normalized occupancy) is 0.072.

For GCTCGGGA, which binding signal (normalized occupancy) is on record?
The binding signal (normalized occupancy) was 0.0672.

With CATACGAA as the sequence, how does the binding signal (normalized occupancy) read?
The binding signal (normalized occupancy) was 0.0771.

For CAGGGGCC, which binding signal (normalized occupancy) is on record?
The binding signal (normalized occupancy) was 0.0688.

CCTTACAC was tested. Which binding signal (normalized occupancy) did it give?
The binding signal (normalized occupancy) was 0.0778.

For ACGCATCA, which binding signal (normalized occupancy) is on record?
The binding signal (normalized occupancy) was 0.0829.

With AAACAGAT as the sequence, how does the binding signal (normalized occupancy) read?
Its binding signal (normalized occupancy) is 0.0748.

AGAAGGAG was tested. Which binding signal (normalized occupancy) did it give?
Its binding signal (normalized occupancy) is 0.0786.

AAAGTGTT was tested. Which binding signal (normalized occupancy) did it give?
The binding signal (normalized occupancy) was 0.0727.

Which binding signal (normalized occupancy) does the source give for GCCTGACC here?
Its binding signal (normalized occupancy) is 0.0702.

Which binding signal (normalized occupancy) does the source give for GATAAGGA here?
The binding signal (normalized occupancy) was 0.0769.

Which binding signal (normalized occupancy) does the source give for CCGCTAAC here?
The binding signal (normalized occupancy) was 0.0673.

Which binding signal (normalized occupancy) does the source give for ACTCTCGG here?
The binding signal (normalized occupancy) was 0.0713.

TCAACGCA was tested. Which binding signal (normalized occupancy) did it give?
The binding signal (normalized occupancy) was 0.0747.

Which binding signal (normalized occupancy) does the source give for TAAGTGGA here?
Its binding signal (normalized occupancy) is 0.0727.

For CATGATAA, which binding signal (normalized occupancy) is on record?
The binding signal (normalized occupancy) was 0.0909.

For GTATTCAC, which binding signal (normalized occupancy) is on record?
The binding signal (normalized occupancy) was 0.0768.

Which binding signal (normalized occupancy) does the source give for AACGGTGT here?
The binding signal (normalized occupancy) was 0.0796.

How did the binding signal (normalized occupancy) turn out when ATGCCAGC was run?
The binding signal (normalized occupancy) was 0.0726.

With CAGCGCTC as the sequence, how does the binding signal (normalized occupancy) read?
The binding signal (normalized occupancy) was 0.0684.

CGCGTTTA was tested. Which binding signal (normalized occupancy) did it give?
The binding signal (normalized occupancy) was 0.081.

How did the binding signal (normalized occupancy) turn out when ACTATATG was run?
Its binding signal (normalized occupancy) is 0.0828.

Which binding signal (normalized occupancy) does the source give for ATTACTCC here?
Its binding signal (normalized occupancy) is 0.0749.

Which binding signal (normalized occupancy) does the source give for AGTGGGAC here?
Its binding signal (normalized occupancy) is 0.077.

How did the binding signal (normalized occupancy) turn out when CAATTATC was run?
Its binding signal (normalized occupancy) is 0.0791.

CAGGCCCG was tested. Which binding signal (normalized occupancy) did it give?
Its binding signal (normalized occupancy) is 0.0665.

With AAGTTAAA as the sequence, how does the binding signal (normalized occupancy) read?
Its binding signal (normalized occupancy) is 0.0718.

How did the binding signal (normalized occupancy) turn out when CTCAGTTC was run?
The binding signal (normalized occupancy) was 0.0707.

For CACTAGAC, which binding signal (normalized occupancy) is on record?
The binding signal (normalized occupancy) was 0.077.

GAGTCGGA was tested. Which binding signal (normalized occupancy) did it give?
Its binding signal (normalized occupancy) is 0.0696.

With ACCATATG as the sequence, how does the binding signal (normalized occupancy) read?
The binding signal (normalized occupancy) was 0.118.

GTTATGCA was tested. Which binding signal (normalized occupancy) did it give?
The binding signal (normalized occupancy) was 0.0792.

ACCAAAGT was tested. Which binding signal (normalized occupancy) did it give?
Its binding signal (normalized occupancy) is 0.0662.

How did the binding signal (normalized occupancy) turn out when ATACATAA was run?
Its binding signal (normalized occupancy) is 0.0869.

Which binding signal (normalized occupancy) does the source give for CGGTTGTC here?
Its binding signal (normalized occupancy) is 0.0727.

CAGGCAGC was tested. Which binding signal (normalized occupancy) did it give?
The binding signal (normalized occupancy) was 0.0731.

With AACTTGAA as the sequence, how does the binding signal (normalized occupancy) read?
Its binding signal (normalized occupancy) is 0.0719.

CCCAGGAG was tested. Which binding signal (normalized occupancy) did it give?
The binding signal (normalized occupancy) was 0.0669.

Which binding signal (normalized occupancy) does the source give for ACATTGGA here?
The binding signal (normalized occupancy) was 0.0847.

How did the binding signal (normalized occupancy) turn out when ACTTTTGG was run?
The binding signal (normalized occupancy) was 0.0711.

How did the binding signal (normalized occupancy) turn out when AGCCTTTC was run?
Its binding signal (normalized occupancy) is 0.0701.

With CTTAGAGA as the sequence, how does the binding signal (normalized occupancy) read?
Its binding signal (normalized occupancy) is 0.0697.

With CTGGCCTA as the sequence, how does the binding signal (normalized occupancy) read?
The binding signal (normalized occupancy) was 0.0713.

For CGCTGACA, which binding signal (normalized occupancy) is on record?
Its binding signal (normalized occupancy) is 0.0773.

Which binding signal (normalized occupancy) does the source give for ACTAGCAC here?
The binding signal (normalized occupancy) was 0.0767.

With TATAGGGA as the sequence, how does the binding signal (normalized occupancy) read?
Its binding signal (normalized occupancy) is 0.0811.

With ATCTACTC as the sequence, how does the binding signal (normalized occupancy) read?
The binding signal (normalized occupancy) was 0.0799.

With AAAAAGAT as the sequence, how does the binding signal (normalized occupancy) read?
The binding signal (normalized occupancy) was 0.077.

For ATAACTGC, which binding signal (normalized occupancy) is on record?
The binding signal (normalized occupancy) was 0.0796.

How did the binding signal (normalized occupancy) turn out when ATTCACAA was run?
Its binding signal (normalized occupancy) is 0.084.

Which binding signal (normalized occupancy) does the source give for ATCCAGAA here?
Its binding signal (normalized occupancy) is 0.0751.

With TACGCCCA as the sequence, how does the binding signal (normalized occupancy) read?
Its binding signal (normalized occupancy) is 0.0755.
